Experimental data from the supplement of paper PMC10126150.
Sequences with one replicate were seen in a single cluster, so their values are uncertain.

system: ATP; assay: switch fluorescence ratio, 500 uM ATP over buffer (Cy3 cluster intensity, sum of 5 cycles each) (fold (ratio)); higher = stronger signal-on switching upon ATP binding; sequences stand for … in TCGTCGGCAGCGTCAGATGTGTATAAGAGACAGTTTTTTTTTTTTTTTTTTTTTTTTT…TC; conditions: aptamer strand: ATP DNA aptamer (quencher-CACCTGGGGGAGTATTGCGGAGGAAGG + anchor), 100 nM annealed; ATP concentration: 500 uM; one replicate
Summary of the method: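 Between each of five buffer/ATP cycles, the flow-cell was stripped with NaOH and re-annealed. Each cycle imaged Cy3-labelled switching-strand clusters, annealed to 100 nM quencher-labelled ATP aptamer on a modified Illumina MiSeq flow-cell, first in selection buffer and then after 15 min with 500 uM ATP at 22 °C. The fluorescence ratio is summed target-cycle over summed buffer-cycle Cy3 intensity per cluster, averaged per switch-domain sequence, with clusters outside 100-1000 RFU excluded.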
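Note: ATP exposure 15 min at 22 °C before imaging.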

Sequence	switch fluorescence ratio
TTACGTTTAA	1.24
TTACTACTTC	1.06
TTACTAGCTC	1.01
TTACTAGGTC	0.996
TTACTAGTCA	0.999
TTACTATCCA	1.04
TTACTATGGA	0.992
TTACTCCAGA	1.1
TTACTCTTG	1.14
TTACTGAGCC	1.05
TTACTGCTT	0.978
TTACTGGGAG	1.01
TTAGACGCAG	1.17
TTAGACGGCA	1.06
TTAGACGGGC	1.02
TTAGAGAGCT	1.07
TTAGAGATGA	0.997
TTAGAGGACA	1.01
TTAGAGTAAG	0.997
TTAGAGTTGC	1.01
TTAGATCTAT	1
TTAGATGTTG	1
TTAGCAGGAT	1
TTAGCAGGGT	0.989
TTAGCCGGG	0.989
TTAGCGCGTT	0.999

Sequence	switch fluorescence ratio
TTAGCGGAGC	0.989
TTAGCTGAAA	1
TTAGCTTTCC	1.48
TTAGGACTAT	1.01
TTAGGCCGTC	0.977
TTAGGCCGTT	1.02
TTAGGCGACT	0.983
TTAGGGACAC	1.03
TTAGGGACTT	1.12
TTAGGGATT	0.994
TTAGGGCTGT	0.991
TTAGGGCTTC	0.955
TTAGGGGT	1.08
TTAGGTAATC	0.962
TTAGGTAGAC	1.05
TTAGGTGAAA	1.02
TTAGGTGAAT	1.02
TTAGGTGGTG	1
TTAGGTTCT	1.11
TTAGTAACTT	1.03
TTAGTACCTG	1.07
TTAGTAGAGG	1.01
TTAGTATAAT	1.02
TTAGTCTTGC	1.01
TTAGTGCAAC	1.04
TTAGTGGAGA	0.998

Sequence	switch fluorescence ratio
TTAGTGTTAG	1
TTAGTTCAGG	1.01
TTAGTTCCC	1.01
TTAGTTCCTC	1.12
TTAGTTTCA	1.02
TTATACCCTG	1.07
TTATACTCCC	4.02
TTATAGGAGA	1.01
TTATAGGGCT	1.04
TTATATACTC	1.13
TTATATGTAA	1.05
TTATATTGCT	1.01
TTATATTT	1.01
TTATCAAACG	0.987
TTATCACCAC	1.04
TTATCAGG	0.984
TTATCATGGT	1.01
TTATCCGGGG	0.997
TTATCGATGC	1.06
TTATCGTCCG	1
TTATCTCCAT	0.975
TTATCTGCCA	0.992
TTATCTGGCC	1.01
TTATCTTGGC	1
TTATGAAAGT	0.961
TTATGAGAAC	1.02

Sequence	switch fluorescence ratio
TTATGATTTT	0.988
TTATGCATTG	0.989
TTATGCCTAA	0.959
TTATGCGTGG	1.05
TTATGGAACT	1.05
TTATGGCAGT	0.993
TTATGGGTGG	0.997
TTATGTGTTC	0.961
TTATGTTAAG	1.02
TTATGTTATA	0.973
TTATGTTGTA	0.983
TTATTACAGA	0.988
TTATTATGCT	1.04
TTATTCCAGC	1.02
TTATTCGCA	1.25
TTATTCGCAC	1.25
TTATTCGGA	1.02
TTATTCTTAA	1.01
TTATTCTTAG	1.01
TTATTGAAAG	1.01
TTATTGCTC	1.09
TTATTTGCTT	1.03
TTCAAATTTG	1.01
TTCAACAGCA	1.06
TTCAACCTCT	1.05
TTCAACCTG	1.04

Sequence	switch fluorescence ratio
TTCAACTGTT	1
TTCAAGAGAT	0.995
TTCAAGCTGC	2.22
TTCAAGTGGA	1.01
TTCAATAGGC	1.01
TTCAATGCAG	1
TTCACCTTTT	1.03
TTCACGGATT	0.977
TTCACTAATC	1.04
TTCACTTAA	0.953
TTCACTTCGC	1.3
TTCAGAATCT	1.02
TTCAGACCCA	1.03
TTCAGAGCCT	1.03
TTCAGCATGG	0.976
TTCAGCCCTG	1.04
TTCAGTCGTT	0.974
TTCAGTTATG	1.01
TTCAGTTCGC	0.969
TTCATACAGG	1.04
TTCATAGAAA	0.977
TTCATATGGA	1.01
TTCATCGTGG	1
TTCATCTTAC	1.09
TTCATGTTAC	1.28
TTCATTAACC	1.05

Sequence	switch fluorescence ratio
TTCATTTAGA	0.989
TTCCAAACCT	1.09
TTCCAACAG	1.03
TTCCAACCA	1.03
TTCCACTGG	1.73
TTCCAGCTTC	1.14
TTCCATGGCT	0.986
TTCCCAAGCG	1.03
TTCCCACAT	1.02
TTCCCACGGC	1.04
TTCCCATGAA	1.02
TTCCCCACCG	1.08
TTCCCCTAAT	1.08
TTCCCCTCTG	1.1
TTCCCCTGGT	0.993
TTCCCCTTAC	1.5
TTCCCGGGAA	1.06
TTCCCGGTAC	3.53
TTCCCGTTCG	0.972
TTCCGAGTAG	4.01
TTCCGCC	1.9
TTCCGCTTGA	1.03
TTCCGGAATA	3.06
TTCCGGGGTG	1.14
TTCCTATTGG	1
TTCCTGCGGC	1.51

Sequence	switch fluorescence ratio
TTCCTGGCTC	1.13
TTCCTGTCGG	0.998
TTCCTGTTCT	1.26
TTCCTTAAAT	1.02
TTCCTTTGAT	0.989
TTCGAAAACT	1
TTCGAAAGA	1.02
TTCGAGCATG	1.13
TTCGATTTAG	1
TTCGCAGCTC	3.61
TTCGCATAAA	1.18
TTCGCCTTAT	0.989
TTCGCGGGAC	1.49
TTCGCTCTCG	1.02
TTCGCTTTAT	1.11
TTCGGAATAA	1.26
TTCGGACAAG	0.991
TTCGGACCAC	1.1
TTCGGATGT	1.04
TTCGGATTTT	0.994
TTCGGCACTA	1.03
TTCGGCAT	1.02
TTCGGCCGGA	1.01
TTCGGGTCAA	1.07
TTCGGGTCTG	1.05
TTCGGGTTG	0.989

Sequence	switch fluorescence ratio
TTCGTACCG	0.954
TTCGTATGG	0.997
TTCGTCAACT	0.979
TTCGTCAT	1.37
TTCGTCCACG	0.984
TTCGTGACAG	0.992
TTCGTTAAGT	1.02
TTCGTTCGG	1
TTCGTTTCAA	1.02
TTCTAAAGCT	1.09
TTCTAATGCC	1.03
TTCTAATTTC	0.947
TTCTACCACG	0.987
TTCTACGCCT	1.74
TTCTATTTGG	0.996
TTCTCACACA	1.09
TTCTCCAAAT	1.34
TTCTCCCG	1.88
TTCTCCGTTT	1.1
